Where “and” joins values, the source holds several entries; their conditions need not be identical. Equal entries are not always repeated. The inconclusive results got no clear call from the source; some entries with a clear call stand among them for comparison. Potencies of inconclusive entries are doubtful fits and often do not repeat. Calls of active or inactive are those of the source. Calls follow the shape of the dose curve; as a rule, active = well fitted cell-killing curve with a large enough effect in the repeat runs; inconclusive = weak or mixed curves; inactive = no such curve, though single readings can be large or run the other way.
Experiment: qHTS assay to identify small molecule antagonists of the androgen receptor (AR) signaling pathway - cell viability counter screen (AID 743033; also: nearly all actives have a fitted effect of over 45% in size)
Conditions: AR-bla HEK293 viability, CellTiter-Glo luminescence, 16 h; activity change, negative = cytotoxicity: at 58.5 µM (top of the series) unless noted
% is scaled to controls: 0 for no effect and ±100 for the full control effect; potency is read from the fitted curve at half-maximal effect; tags tell the direction and shape of the fitted curve.

Row | SMILES | Potency | activity change, negative = cytotoxicity
1 | CCOC(=O)C1(c2ccccc2)CCN(CCC(C#N)(c2ccccc2)c2ccccc2)CC1 | inconclusive: 23.9 µM [cytotoxic, partial curve, poor fit] and inconclusive: 33.8 nM [cytotoxic, full curve, poor fit] | –
2 | CCCCCCCCn1cc[n+](C)c1 | inconclusive: 12.4 µM [cytotoxic, full curve] [middle of 4 runs] | –
3 | c1cc2ccc3cccc4ccc(c1)c2c34 | inconclusive: 18.2 µM [cytotoxic, partial curve, poor fit] | –
4 | Clc1ccc(CSC(Cn2ccnc2)c2ccc(Cl)cc2Cl)cc1 (configuration not stated) | inconclusive: 0.0041 µM [cytotoxic, full curve, poor fit] | –
5 | CCCCCCCCCCOC(=O)c1ccccc1C(=O)OCCCCCCCCCC | inactive | –
6 | Nc1c(Cl)cc([N+](=O)[O-])cc1Cl | inconclusive: 43.9 µM [cytotoxic, partial curve, poor fit] and inconclusive: 21.9 µM [cytotoxic, partial curve, poor fit] | –
7 | CO/C=C(/C(=O)OC)c1ccccc1Oc1cc(Oc2ccccc2C#N)ncn1 | active: 18.5 µM | –
8 | CCCC[n+]1ccc(C)cc1 | inconclusive: 19.8 µM [cytotoxic, partial curve, poor fit] | –
9 | CC(C)N(C(=O)CCl)c1ccccc1 | inconclusive: 54.9 µM [cytotoxic, single point] and inconclusive: 54.9 µM [cytotoxic] | –
10 | Oc1c(Br)c(Br)c(Br)c(Br)c1Br | inconclusive: 13.9 µM [cytotoxic, partial curve] | –
11 | CCCCCCBr | inactive | –
12 | CC1(c2ccc(Oc3ccccc3)cc2)OC(=O)N(Nc2ccccc2)C1=O (configuration not stated) | active: 24.7 µM | –
13 | CCN(CC)c1c([N+](=O)[O-])cc(C(F)(F)F)c(N)c1[N+](=O)[O-] | inconclusive: 34.7 µM [cytotoxic, partial curve] | –
14 | Cc1cc(C(C)(C)c2ccc(O)c(C)c2)ccc1O | inconclusive: 46.6 µM [cytotoxic, partial curve, poor fit] | –
15 | O=C(CCl)Nc1ccccc1 | inconclusive: 43.6 µM [cytotoxic, partial curve] | –
16 | CCOP(=S)(OCC)Oc1cc(C)nc(N(CC)CC)n1 | inconclusive: 54.9 µM [cytotoxic, partial curve, poor fit] | –

Row | SMILES | Potency | activity change, negative = cytotoxicity
17 | CO/N=C(/C(=O)OC)c1ccccc1COc1ccccc1C | active: 6.92 µM | –
18 | O=[N+]([O-])[O-].[Tl+] | inconclusive: 49.3 µM [cytotoxic, partial curve, poor fit] | –
19 | Oc1cc(Cl)c(Cl)c(Cl)c1Cl | active: 53.7 µM | –
20 | CC(Oc1ccc(Oc2ncc(C(F)(F)F)cc2Cl)cc1)C(=O)O (configuration not stated) | inconclusive: 38.9 µM [cytotoxic, partial curve] | –
21 | C/C(=C\c1ccccc1)[N+](=O)[O-] | active: 24.5 µM | –
22 | C=CC(=O)NCNC(=O)C=C | inconclusive: 61.5 µM [cytotoxic, partial curve, poor fit] | –
23 | COP(=S)(OC)Oc1cc(Cl)c(Br)cc1Cl | inconclusive: 61.6 µM [cytotoxic, partial curve, poor fit] | –
24 | C=CC(C)(CCC=C(C)C)OC(=O)c1ccccc1N (configuration not stated) | inactive | –
25 | CC(C)N(CCC(C(N)=O)(c1ccccc1)c1ccccn1)C(C)C (configuration not stated) | inactive | –
26 | CCCC1COC(Cn2cncn2)(c2ccc(Cl)cc2Cl)O1 (configuration not stated) | inconclusive: 55.9 µM [cytotoxic] and inconclusive: 49 µM [cytotoxic] | –
27 | O=[N+]([O-])c1ccc2ccc3cccc4ccc1c2c34 | inactive | –
28 | O=C(NC(=O)c1c(F)cccc1F)Nc1cc(Cl)c(Oc2ncc(C(F)(F)F)cc2Cl)c(Cl)c1 | inconclusive: 3.73 µM [cytotoxic, full curve] | –
29 | CCN(CC)C(=O)/C(Cl)=C(\C)OP(=O)(OC)OC | inconclusive: 23.9 µM [cytotoxic, single point] | –
30 | COc1ccc(C=O)cc1OC | – | inconclusive: -38.8% [cytotoxic]
31 | Cc1cc(C2CC2)nc(Nc2ccccc2)n1 | inconclusive: 54.9 µM [cytotoxic, single point] | –
32 | CCNc1nc(NC(C)C)nc(SC)n1 | inconclusive: 54.9 µM [cytotoxic, partial curve, poor fit] | –

— PubChem BioAssay (Tox21)
